# Results taken from PubChem BioAssay (NCI).
#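 Results reflect a 48-hour exposure of cells in 96-well plates to compound at five concentrations. Here, GI50 denotes the concentration required for 50% inhibition of growth. At the TGI there is no net growth.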
# System: NCI-H322M lung
# Experiment: NCI anticancer screen, dose series, 48 h
Structure (SMILES),GI50 [µM],TGI [µM]
Cc1nc(Nc2ccccn2)sc1C(=O)CC(SCC(=O)Nc1ccc(Cl)cc1)c1ccccc1F (stereo unspecified),3.08,21.4
Cc1ccc(O)cc1Nc1nc(SCCN2CCOCC2)nc2c1cnn2CC(Cl)c1ccc(Br)cc1 (stereo unspecified),25.6,79.9
Brc1ccc(N/N=C/c2c[nH]c3ccc(Br)cc23)nc1,3.5,15.4
